At least one peptide structure holds a part that was inferred or is arguable (an end, a ring closure or a residue).
Assays:
GH4 pituitary cells = experiment: Prolactin mRNA level in pituitary cell line; type: cell-based; conditions: 10^−7M; 24 hours
[1] = test system: normal, non-diabetic fasting human subjects; experiment: GLP-1(7-37) infusion in fasting non-diabetic subjects: insulin and glucose; type: in vivo; conditions: for Glucose concentration nadir: 34 minutes after infusion began
rat pancreas = conditions: 10^−12M; studies described in Weir et al. (Diabetes 38:338–342 (1989)); cited from earlier work
RIN 1046-38 cells = experiment: cAMP formation in insulinoma cell line; type: cell-based, rat; conditions: for cAMP level: Table 2
Procedure: Cells were grown as described in Example 1, in […] culture dishes. Varying amounts of glucagon-like peptides were added to culture wells in triplicate. […] Twenty microliters from each culture well was assayed.
Insulinotropic activity was monitored as described by Mojsov, S., et al., (J. Clin. Invest. 79:616–619 (1987)) and Drucker, D. J., et al., (Proc. Natl Acad. Sci. 84:3434–3438 (1987)), both of which references are incorporated by reference herein. […]

βTC-1 cells = experiment: Cellular insulin content by radioimmunoassay; type: cell-based, mouse; conditions: 24 hours
[2] = test system: rat islet glucagon-producing cell line 1056A; experiment: Glucagon mRNA level in glucagon-producing cell line; type: cell-based; conditions: 10^−7M; 24 hours
AtT-20 pituitary cells = experiment: Corticotropin (ACTH) mRNA level in pituitary cell line; type: cell-based; conditions: 10^−7M; 24 hours

SMILES: CC[C@H](C)[C@H](NC(=O)[C@H](Cc1ccccc1)NC(=O)[C@H](CCC(=O)O)NC(=O)[C@H](CCCCN)NC(=O)[C@H](C)NC(=O)[C@H](C)NC(=O)[C@H](CCC(N)=O)NC(=O)CNC(=O)[C@H](CCC(=O)O)NC(=O)[C@H](CC(C)C)NC(=O)[C@H](Cc1ccc(O)cc1)NC(=O)[C@H](CO)NC(=O)[C@H](CO)NC(=O)[C@@H](NC(=O)[C@H](CC(=O)O)NC(=O)[C@H](CO)NC(=O)[C@@H](NC(=O)[C@H](Cc1ccccc1)NC(=O)[C@@H](NC(=O)CNC(=O)[C@H](CCC(=O)O)NC(=O)[C@H](C)NC(=O)[C@@H](N)Cc1c[nH]cn1)[C@@H](C)O)[C@@H](C)O)C(C)C)C(=O)N[C@@H](C)C(=O)N[C@@H](Cc1c[nH]c2ccccc12)C(=O)N[C@@H](CC(C)C)C(=O)N[C@H](C(=O)N[C@@H](CCCCN)C(=O)NCC(=O)N[C@@H](CCCNC(=N)N)C(=O)NCC(=O)O)C(C)C [GLP-1(7-37)]
- Effects on level of prolactin mRNA (GH4 pituitary cells): no effects
- Mean peak insulin value ([1]; 5 ng/kg/min, 15 minutes after beginning of infusion, 6.5±1.6 at time 0): 17.7±8.6 μU/ml
- Glucose concentration nadir ([1]; 5 ng/kg/min, baseline 5.0±0.33): 3.78 ± 0.33 mmol/L
- Glucose concentration nadir ([1]; 5 ng/kg/min, baseline 90±6): 68 ± 6 mg/dL
- Increase in insulin levels ([1]; 5 ng/kg/min, from time 0 to peak at 15 minutes): approximately 3 fold
- Changes in Serum Insulin, line headed Non-diabetic Subjects (n = 3) ([1]; infusion 5.0 ng/kg/min, mean ± S.D.): 11.8 ± 6.7
- Peak insulin (uU/mL)*, non-diabetic subjects ([1]; infusion 5.0 ng/kg/min, minus baseline, mean ± S.D.): 219.0 ± 76.0 uU/mL
- Insulinotropic effect (rat pancreas): gave an insulinotropic effect
- Activity on cAMP levels (RIN 1046-38 cells; 50 pM): still active
- Increase of cAMP levels (RIN 1046-38 cells; 5 nM): at least 4 fold
- Effect on cAMP levels (RIN 1046-38 cells; 0.5 μM): increased cAMP levels
- Increase of cellular levels of cAMP (RIN 1046-38 cells; 10^−10M to 10^−11 M): 5 fold
- cAMP (RIN 1046-38 cells; Exp. 1, 5 × 10^−9 M): 148.0 ± 15.0 (c) fmol
- cAMP (RIN 1046-38 cells; Exp. 1, 5 × 10^−10 M): 45.2 ± 5.9 (c) fmol
- cAMP (RIN 1046-38 cells; Exp. 1, 5 × 10^−11 M): 23.9 ± 1.0 (c) fmol
- cAMP (RIN 1046-38 cells; Exp. 1, 5 × 10^−12 M, per 1/50th of cell extract per plate, control 15.4 ± 0.7, mean ± SEM): 21.0 ± 2.0 (a) fmol
- cAMP (RIN 1046-38 cells; Exp. 2, 5 × 10^−7 M): 83.0 ± 2.1 (c) fmol
- cAMP (RIN 1046-38 cells; Exp. 2, 5 × 10^−8 M, control 43.6 ± 4.1): 78.3 ± 3.1 (c) fmol
- cAMP (RIN 1046-38 cells; Exp. 3, 5 × 10^−8 M): 69.6 ± 7.0 (b) fmol
- cAMP (RIN 1046-38 cells; Exp. 3, 5 × 10^−9 M): 134.0 ± 25.6 (b) fmol
- cAMP (RIN 1046-38 cells; Exp. 3, 5 × 10^−10 M, control 34.4 ± 5.2): 70.8 ± 5.2 (a) fmol
- cAMP formation (RIN 1046-38 cells; IBMX 100 uM, peptide 10^−7 M): 317 ± 65 fmoles/10 ul of cell extract
- cAMP formation (RIN 1046-38 cells; IBMX 100 uM, peptide 10^−9 M): 202 ± 17 fmoles/10 ul of cell extract
- cAMP formation (RIN 1046-38 cells; IBMX 100 uM, peptide 10^−11 M, 10 minutes, control 161 ± 10): 205 ± 9 fmoles/10 ul of cell extract
- cAMP formation (RIN 1046-38 cells; IBMX 500 uM, peptide 10^−7 M): 2114 ± 421 fmoles/10 ul of cell extract
- cAMP formation (RIN 1046-38 cells; IBMX 500 uM, peptide 10^−9 M): 927 ± 75 fmoles/10 ul of cell extract
- cAMP formation (RIN 1046-38 cells; IBMX 500 uM, peptide 10^−11 M, control 540 ± 22): 501 ± 49 fmoles/10 ul of cell extract
- cAMP level (RIN 1046-38 cells; 10^−7 M, 10 minutes): 370
- cAMP level (RIN 1046-38 cells; 10^−8 M, 10 minutes): 494
- cAMP level (RIN 1046-38 cells; 10^−9 M, 10 minutes): 515
- cAMP level (RIN 1046-38 cells; 10^−10 M, 10 minutes): 253
- cAMP level (RIN 1046-38 cells; 10^−11 M, 10 minutes): 533
- cAMP level (RIN 1046-38 cells; peptide 10^−6 M, 10 minutes, no-peptide value 140 (Expt. I), 91 (Expt II)): 400
- cAMP formation (RIN 1046-38 cells; Table 8, 10^−8 M, no peptide 27 ± 2, mean ± S.E.M.): 128 ± 10 f-mole/5 ul of cell extract/15 min exposure to peptide
- Stimulation of cAMP levels (RIN 1046-38 cells; even at 10^−11 M): capable of stimulating cAMP levels
- Increase of total cellular insulin content, maximal (βTC-1 cells; 10 nM): 1.52±0.20 fold
- Increase of total cellular insulin content (βTC-1 cells; 0.1 μM): 1.33±0.11 fold
- Increase of total cellular insulin content (βTC-1 cells; 1 μM): 1.26±0.21 fold
- Effects on level of glucagon mRNA [2]: no effects
- Effects on level of corticotropin (ACTH) mRNA (AtT-20 pituitary cells): no effects
